Measurements from PubChem BioAssay AID624418 (National Center for Advancing Translational Sciences (NCATS), 2012).
Among all 410,000 compounds or so, about 530 (0.13%) were called active. The shares of active, inactive and inconclusive entries below differ from those in the screen. Calls follow the shape of the dose curve; as a rule, active = well fitted inhibition curve with a large enough effect; inconclusive = small, poorly fitted or top-dose-only effect, or another doubt; inactive = no such curve, though single readings can be large or run the other way. Potencies beside an inconclusive call are fits to weak or partial responses and may not hold up.

Assay: qHTS of GLP-1 Receptor Inverse Agonists: Cytotox Screen
Conditions: HEK293 cAMP-luciferase reporter cells, luminescence, 24 h; series mostly up to 38.3 µM
Summary of the method: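 Cells in DMEM/10% Nu serum/1% pen-strep, 1536-well format. Pre-incubated 12 h, dosed with 23 nL compound, incubated a further 24 h. Luciferase detection, 12 min at room temp, luminescence.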
Potency is read from the fitted curve at half-maximal effect.

Structure (SMILES) | Potency
CCOC(=O)N/N=C/c1ccc(N(CC)CC)cc1O | inconclusive: 1 µM [inhibitor, partial curve, poor fit]
CCCCN(C)CCNC(=O)c1cc(-c2cccnc2)nc2ccc(S(=O)(=O)N3CCC(C)CC3)cc12 | inconclusive: 22.4 µM [inhibitor, single point]
CC1=C(C)C(=O)C(CCCCC#CCCCC#CCO)=C(C)C1=O | inactive
Cc1csc(NC(=O)c2oc3ccccc3c2C)n1 | inactive
Cc1cc(C(=O)NCC2CCCCC2)ccc1[N+](=O)[O-] | inactive
Cc1cc(S(=O)(=O)NC2CC(C)(C)NC(C)(C)C2)c(Cl)cc1Cl | inconclusive: 2.82 µM [inhibitor, single point]
CCCCCc1ccc(OCCC[n+]2ccccc2)c(CCCCC)c1 | inconclusive: 12.6 µM [inhibitor, single point]
COc1cc(NC(=O)c2noc3c2CCc2ccccc2-3)cc(OC)c1OC | inactive
C=COCCNC(=S)Nc1cccc(Cl)c1 | inconclusive: 10 µM [inhibitor, single point]
Cc1ccc(-n2cccn2)c(CN2CCCC(C(=O)c3sccc3C)C2)c1 (centres undefined) | active: 11.2 µM
Cc1nc2c(-c3ccc(Cl)cc3)c(C)[nH]n2c(=O)c1Cc1ccccc1 | inconclusive: 12.6 µM [inhibitor, partial curve, poor fit]
CCOC(=O)CSC1=C(C#N)C(c2ccc3c(c2)OCO3)CC(=O)N1 (centres undefined) | inconclusive: 3.98 µM [inhibitor, partial curve, poor fit]
COc1cc(C(=O)Nc2nc(-c3cccs3)cs2)cc(OC)c1OC | inconclusive: 12.6 µM [inhibitor, single point]
CCCCN1C(=S)NC[C@@H]1Cc1cccc2ccccc12 | inconclusive: 3.55 µM [inhibitor, partial curve, poor fit]
NC(=S)NN=C1C=CCCC1 | inconclusive: 31.6 µM [inhibitor, single point]
O=C(CC1Sc2ccccc2NC1=O)NNC(=O)Nc1ccc(Cl)cc1 (centres undefined) | inconclusive: 28.2 µM [inhibitor, single point]
Cc1ccc(C(=O)N2CCc3cc(CNS(=O)(=O)c4ccc(Cl)s4)ccc32)cc1 | inactive
Cn1cc(S(=O)(=O)c2ccc(Cl)cc2)c(=O)c2cc(F)c(N3CCCCCC3)cc21 | inactive
Cc1ccccc1-c1cc(C(=O)O)nn1CC1CC(c2cccc([N+](=O)[O-])c2)=NO1 (centres undefined) | inconclusive: 11.2 µM [inhibitor, single point]
O=C(CSc1nnc(-c2cccnc2)o1)Nc1nccs1 | inconclusive: 28.2 µM [inhibitor, single point]
NC(=S)N/N=C/c1ccc(C23CC4CC(CC(C4)C2)C3)cc1 | inconclusive: 1.58 µM [inhibitor, full curve, poor fit]
COc1ccc2nc(NC(=S)NC(=O)c3ccco3)sc2c1 | inactive
CC(C)(C)n1nnnc1C(c1cccs1)N(Cc1cccnc1)Cc1ccccc1Cl (centres undefined) | inconclusive: 22.4 µM [inhibitor, partial curve, poor fit]

Structure (SMILES) | Potency
CC(C)c1ccc(NC(=O)c2cc3c(s2)-c2ccccc2SC3)cc1 | inactive
O=C(CN1C(=O)COc2ccc(S(=O)(=O)N3CCCCCC3)cc21)NCc1ccc(Cl)cc1 | inactive
Cc1ccccc1NC(=O)c1ccc(CN2CCC(Cc3ccccc3)CC2)cc1 | inactive
Cc1nc(SCC(=O)NC(C)(C#N)C2CC2)c2c(-c3cccs3)csc2n1 (centres undefined) | inactive
O=[N+]([O-])c1cc2c(cc1/C=N\NS(=O)(=O)c1ccccc1)OCO2 | inconclusive: 31.6 µM [inhibitor, single point]
CC1(C)CC(=Cc2cc(O)ccc2[N+](=O)[O-])C(=O)c2ccccc21 | inconclusive: 28.2 µM [inhibitor, single point]
Cc1ccc(NC(=O)COc2ccc3c(c2)OCO3)c(C)c1 | inconclusive: 11.2 µM [inhibitor, single point]
FC(F)(F)c1ccnc(Sc2n[nH]c(C(F)(F)F)n2)c1 | inconclusive: 20 µM [inhibitor, single point]
COc1ccc(OC)c(NC(=O)c2cc3c(=O)oc4ccccc4c3s2)c1 | inactive
CC(Nc1nc(N2CCN(S(C)(=O)=O)CC2)nc2ccccc12)c1ccccc1 (centres undefined) | inconclusive: 28.2 µM [inhibitor, single point]
c1ccc2c(N3CCOCC3)nc(N3CCOCC3)nc2c1 | inactive
CC1CCN(CC(O)COCCC23CC4CC(CC(C4)C2)C3)CC1 (centres undefined) | inconclusive: 10 µM [inhibitor, partial curve, poor fit]
O=C1C2C3C=CC(C3)C2C(=O)N1c1ccc(S(=O)(=O)Nc2nccs2)cc1 (centres undefined) | inconclusive: 0.501 µM [inhibitor, full curve, poor fit]
COc1cccc(NC(=O)C2C3CCC4C(CCC32)C4(Cl)Cl)c1 (centres undefined) | inconclusive: 31.6 µM [inhibitor, single point]
CS/C(=N\S(=O)(=O)c1cccs1)Nc1ccc(N2CCOCC2)cc1 | inconclusive: 1 µM [inhibitor, full curve, poor fit]
CC(=O)Nc1ccc(NC(=O)C(C)OC(=O)c2ccc(S(=O)(=O)N3CCCCCC3)cc2)cc1 (centres undefined) | inconclusive: 10 µM [inhibitor, single point]
CC(C)N1CCc2c(sc(NC(=O)c3ccc(C(=O)c4ccccc4)cc3)c2C(N)=O)C1 | inconclusive: 7.94 µM [inhibitor, single point]
Cc1cc(C)c2nc(-c3ccncc3)cc(C(=O)N3CCN(Cc4ccccc4Cl)CC3)c2c1 | inconclusive: 22.4 µM [inhibitor, single point]
Cc1cc(Cl)cc2sc(=S)[nH]c12 | inconclusive: 28.2 µM [inhibitor, single point]
Cc1ccc(O)c(C(CC(=O)NCC2(c3ccccc3)CCCC2)c2ccccc2)c1 (centres undefined) | inconclusive: 28.2 µM [inhibitor, single point]
O=C(NC1CCCCC1)C(c1ccc(-c2ccccc2)cc1)n1c(=O)c(-c2ccco2)nc2ccccc21 (centres undefined) | inactive
CCOc1ccc(Br)cc1C(=O)N/N=C/c1c[nH]c2ccccc12 | inactive
Cc1[nH]c2ccc(Br)cc2c(=S)c1C/C=C/Cl | inconclusive: 28.2 µM [inhibitor, single point]

Structure (SMILES) | Potency
COc1ccc(-c2cc(-c3ccccc3)no2)cc1 | inconclusive: 28.2 µM [inhibitor, single point]
CCN(CC)CCNc1ccc(C)c2sc3ccc(O)cc3c(=O)c12 | inconclusive: 15.8 µM [inhibitor, partial curve, poor fit]
CCOCCCNC(=O)/C(C#N)=C/c1cc(OC)c(O)c([N+](=O)[O-])c1 | inconclusive: 28.2 µM [inhibitor, single point]
COc1ccc(/C(C)=N/Nc2nccnc2Cl)cc1 | inconclusive: 28.2 µM [inhibitor, single point]
COc1ccc2ccccc2c1-c1sc(Nc2ccccc2)n[n+]1-c1ccc(F)cc1 | active: 5.01 µM
[O-]/[N+](=C/c1cccnc1)c1ccc(Br)cc1 | inactive
COc1ccc(Nc2nc(NCc3ccco3)nc(N/N=C/c3ccc(O)cc3)n2)cc1 | inconclusive: 10 µM [inhibitor, single point]
CCOC(=O)c1c(C)[nH]c(C(=O)N/N=C\c2ccccc2Cl)c1C | inconclusive: 12.6 µM [inhibitor, partial curve, poor fit]
CCOC(=O)CSc1nc2ccc(NC(=O)c3ccc(C)cc3)cc2s1 | inactive
S=c1c2c(nc3nc[nH]n13)CCC2 | inconclusive: 1.78 µM [inhibitor, full curve]
Oc1ccc(NCc2cccc(OCc3ccccc3)c2)cc1 | inactive
CCC(=O)c1ccc(OCC(=O)N2CCN(c3ccccn3)CC2)cc1 | inactive
Cc1ccc(S(=O)(=O)N2[C@@H](c3ccc(Cl)cc3)C(C(=O)O)=CC[C@H]2c2cccc(Cl)c2)cc1 | inconclusive: 3.16 µM [inhibitor, full curve, poor fit]
Cn1cc([N+](=O)[O-])c(C(=O)Nc2ccc3nc(-c4ccccc4)[nH]c3c2)n1 | inconclusive: 5.62 µM [inhibitor, full curve]
CCC(CC)c1nn2c(=O)cc(COc3ccc(NC(=O)c4ccccc4C)cc3)nc2s1 | inactive
CCCCC[C@H](O)/C=C/[C@H]1CCC(=O)[C@@H]1CCCCCCC(=O)N1CCCCC1CO (some centres undefined) | inconclusive: 11.2 µM [inhibitor, partial curve, poor fit]
Cc1ccc(S(=O)(=O)NCC(=O)NCC(=O)N(C)Cc2ccc(Br)s2)cc1C | inactive
CCNC(=O)C(=O)NCC(c1cccs1)S(=O)(=O)c1ccc(C)cc1 (centres undefined) | inconclusive: 28.2 µM [inhibitor, single point]
COc1cc(NS(=O)(=O)c2ccc(NC(=O)c3cccc(F)c3)cc2)nc(OC)n1 | inactive
Cc1ccc(/C=C(\C#N)C(=O)NC(C)c2ccccc2)o1 (centres undefined) | inconclusive: 28.2 µM [inhibitor, single point]
Cc1c(Nc2ccc3nonc3c2[N+](=O)[O-])c(=O)n(-c2ccccc2)n1C | inconclusive: 5.01 µM [inhibitor, single point]
Cc1ccc(SCc2cn3ccccc3n2)cc1 | inconclusive: 5.62 µM [inhibitor, full curve, poor fit]
CCN1/C(=C2\C(=O)N(C)C(=S)N2c2ccccc2)C=Cc2ccccc21 | inconclusive: 10 µM [inhibitor, partial curve, poor fit]
